{
  "source": "patent US9320760B2",
  "about": "“Compositions and methods of use of compounds to increase cancer patient survival time” (BioNumerik Pharmaceuticals, Inc., priority 2008, dated 2016)",
  "biological_target": "T1, thioredoxin/thioredoxin reductase (Bos taurus, UniProt O97680)",
  "T1 sequence (O97680 1-105)": "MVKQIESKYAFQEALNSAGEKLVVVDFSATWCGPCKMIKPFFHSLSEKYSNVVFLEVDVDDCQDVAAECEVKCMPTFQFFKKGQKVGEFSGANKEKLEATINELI",
  "conditions": "result in words",
  "data": [
    {"smiles": "O=S(=O)([O-])CCSSCCS(=O)(=O)[O-].[Na+].[Na+]", "note": "[Tavocept™, disodium 2,2′-dithio-bis-ethane sulfonate]", "values": [
      {"measurement": "inhibition of TX/TXR catalyzed reduction of the insulin A-B chain disulfide bond", "value": "inhibits"}
    ]}
  ]
}
